# Measurements from PubChem BioAssay AID1347417 (National Center for Advancing Translational Sciences (NCATS), 2020).
# In all, about 120,000 compounds went through this assay and about 5,300 (4.4%) were called active. The inconclusive results got no clear call from the source; some entries with a clear call stand among them for comparison. The call rests on the fitted dose curve; in most records, active means well fitted inhibition curve with a large enough effect; inconclusive means small, poorly fitted or top-dose-only effect; inactive means no such curve, though single readings can be large or run the other way. A potency beside an inconclusive call is a rough fit, not a confirmed value.
# Assay: qHTS Primary assay for Inhibitors of Plasmodium falciparum Dd2 growth in vitro; further: nearly all actives have a fitted effect of over 65% in size;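 on activity, negative = inhibition: plate controls were DMSO vehicle for no effect and reference drug for full effect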
# Conditions: P. falciparum Dd2 growth, SYBR Green, 72 h; activity, negative = inhibition: at 28.9 µM (top of the series) unless noted; series mostly up to 28.9 µM
# Method in brief: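 Readout: SYBR Green fluorescence, 485 nm excitation, 535 nm emission, after ~16 h lysis at 37C. Before that, Dd2-infected red cells (2.5% hematocrit) grew 72 h with compound, 29 uM top final concentration.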
# Potency means the concentration at half of the fitted maximal effect; tags describe the fitted curve by direction and shape.
SMILES,Potency,"activity, negative = inhibition",outcome
Cc1ccc(OCc2nc(-c3ccc(C(=O)N4CCN(c5ccccc5)CC4)cc3)oc2C)cc1,"inconclusive: 20 µM [inhibitor, partial curve, poor fit]",,
O=C(c1ccc(Cl)cc1)N1CCC(n2cnnc2-c2ccccc2)CC1,"inconclusive: 17.8 µM [inhibitor, single point]",,
O=C(NC1CC(c2cc(=O)[nH]c(C3CC3)n2)C1)c1ccc2c(c1)CCCO2 (centres undefined),,inactive: -20.8%,
COc1cccc(CN2CC3(C2)C(=O)N(Cc2cccc(Cl)c2)C(=O)[C@@H]2C[C@@H](O)CN23)c1,"inconclusive: 17.8 µM [inhibitor, single point]",,
CCOC(=O)c1c(S(=O)(=O)N2CCC(C(=O)Nc3ccc(OCC)cc3)CC2)c(C)n(C)c1C,"inconclusive: 0.0089 µM [inhibitor, full curve, poor fit]",,
CCOc1ccc(-c2cn3c(n2)sc2cc(C(=O)NCCc4ccc(OC)c(OC)c4)ccc23)cc1,active: 3.55 µM,,
COc1ccc(-c2cc(N3CCC(NC(=O)c4cccc(N(C)C)c4)C3)n[nH]2)cc1 (centres undefined),"inconclusive: 2.51 µM [inhibitor, full curve, poor fit]",,
CN(C)C(=O)c1ccc(OC2CCN(C(=O)c3cccc(Cl)c3)CC2)nc1,,inactive: 18.7%,
O=C(NCc1ccco1)C1c2ccccc2C(=O)N(Cc2ccccc2)C12CCCC2 (centres undefined),,inactive: -16.6%,
COc1ccc(-c2cnc([C@@H]3COCCN3Cc3ccccc3)[nH]2)cc1,active: 10 µM,,
COc1ccc(OC)c(CNC(=O)C2CCN(c3ncnc4c3nc3n4CCCCC3)CC2)c1,"inconclusive: 0.0891 µM [inhibitor, full curve, poor fit]",,
O=C(CCn1nc(-c2ccc(Cl)cc2)c2ccccc2c1=O)Nc1ccc(OC(F)(F)F)cc1,"inconclusive: 20 µM [inhibitor, single point]",,
CC(C)CCNC(=O)N1CCC(OC2CCN(Cc3ccccc3)CC2)CC1,"inconclusive: 10 µM [inhibitor, single point]",,
CCCN1CCC2(CCN([S+](=O)([O-])c3cccc(OC)c3)CC2)Oc2ccccc21,"inconclusive: 1 µM [inhibitor, full curve]",,
CN(C)c1cccc(-c2nc(N3CCOCC3)cc3c2CN(Cc2cnn(C)c2)C3=O)c1,"inconclusive: 3.55 µM [inhibitor, partial curve, poor fit]",,
Cc1ccc(-c2cc(N3CCCN(C(=O)COc4ccc(F)cc4)CC3)n[nH]2)cc1C,"inconclusive: 0.562 µM [inhibitor, full curve, poor fit]",,
NC(=O)COc1ccccc1OC[C@@H]1CCCN2CCCC[C@H]12,"inconclusive: 17.8 µM [inhibitor, single point]",,
COCCNC(=O)c1cc(-c2ccccc2F)cc2c1OCCN2Cc1cccnc1,,inactive: -8.34% [at 44.1 µM],
CCOC(=O)N1CCC(NC(=O)c2ccc3c(c2)N(Cc2cc(C)ccc2C)C(=O)c2ccccc2S3=O)CC1 (centres undefined),"inconclusive: 10 µM [inhibitor, partial curve, poor fit]",,
CCC(C)(C)NC(=O)Cn1c(=O)ccc2cc(S(=O)(=O)N3CCC(C)CC3)ccc21,"inconclusive: 12.6 µM [inhibitor, single point]",,

SMILES,Potency,"activity, negative = inhibition",outcome
COc1ccc(-c2noc([C@@H]3CCCN3C(=O)COc3cccc(C)c3)n2)cc1,"inconclusive: 17.8 µM [inhibitor, single point]",,
NCCC1CCN(C(=O)Nc2ccccc2)CC1,,inactive: 1.42%,
CNc1nc(C(=O)N2CCC3(CCCN(CCOC)C3=O)C2)cs1 (centres undefined),,inactive: 1.42%,
Cc1nc(-c2ccc(C)c(S(=O)(=O)N3CCC(C(=O)Nc4ccc(Cl)cc4)CC3)c2)no1,active: 11.2 µM,,
O=C(c1cccnc1)N1CCC2(CC1)COc1ccccc1NC2=O,,inactive: 19.1%,
COc1ccc(C2(C(=O)NC3CCc4n[nH]c(=O)n4CC3)CCCCC2)cc1 (centres undefined),"inconclusive: 7.08 µM [inhibitor, partial curve, poor fit]",,
CC(C)CCN1CC2(C1)C(=O)Nc1ccccc12,,inconclusive: -144% [inhibitor] [at 44.1 µM],
O=C(Nc1ccc(C2(C(=O)NCc3ccc4c(c3)OCO4)CCCCC2)cc1)C1CC1,active: 12.6 µM,,
O=C(CCn1c(=O)c2cccn2c2ccccc21)Nc1ccc(F)cc1,"inconclusive: 11.2 µM [inhibitor, single point]",,
Cc1ccc(C)c(NC(=O)N2C[C@H](c3nc(-c4cccnc4)no3)[C@@H](C)C2)c1,,,inactive
O=C(NCc1cccs1)c1ccc(CSc2nc3cccnc3n2Cc2ccccc2)cc1,"inconclusive: 17.8 µM [inhibitor, single point]",,
O=C1C2=C(Nc3ccccc3SC2c2ccccc2C(F)(F)F)c2ccccc21 (centres undefined),"inconclusive: 10 µM [inhibitor, single point]",,
COc1ccccc1CCC(=O)N1[C@@H]2CC[C@H]1CC(NC(=O)c1ccc(F)cc1)C2 (some centres undefined),"inconclusive: 20 µM [inhibitor, single point]",,
O=C(c1nnc(COc2ccc(F)cc2)n1-c1ccccc1)N1CCC[C@@H]1C(c1ccccc1)c1ccccc1,"inconclusive: 1.26 µM [inhibitor, partial curve, poor fit]",,
CCOc1ccccc1NC(=O)C1CCN(S(=O)(=O)c2ccc3[nH]c4c(c3c2)CCCCC4)CC1,"inconclusive: 15.8 µM [inhibitor, single point]",,
CN(CC[C@H]1CN(C(=O)Cc2cccs2)CC[C@H]1CC(=O)O)c1ccccc1,"inconclusive: 11.2 µM [inhibitor, single point]",,
CCn1cnnc1-c1nn(C)c2c1CN(C(=O)c1n[nH]c3ccccc13)CC2,"inconclusive: 2.24 µM [inhibitor, partial curve, poor fit]",,
CCN(CC)C(=O)CCc1c(C)nn(-c2ccccc2C)c1Oc1ccccc1,"inconclusive: 2.51 µM [inhibitor, full curve, poor fit]",,
Cc1nn(C)c(C)c1S(=O)(=O)N(CC(=O)N1CCN(c2ccccc2)CC1)c1ccc(C(C)C)cc1,"inconclusive: 7.08 µM [inhibitor, partial curve, poor fit]",,
